# Assay results taken from the RNAGym collection of RNA variant scans (doi:10.7554/elife.90254).
# Read counts are not given, so values of variants with three or more changes are uncertain.
# B1: LINE1-full (parent)
# chain: UACGUAGGUGGUUUUCCCCUGAUAGUGCUAAGGGGGCCUGGAAGUUUGGACUGGGCAGAGCUCAACACAGCGUGGCAAAGUGGCUGUGGCUAGACUGCCUCUCUGGAUUCCUCGUCACUCAGCAGGGCAUCUCUGAGAGAAAUGCC
# Variants of: B1
# Assay: self-cleavage, relative activity (ratio to wild type); higher = more cleavage; in vitro, sequencing; the parent is a self-cleaving ribozyme
row,Variant,self-cleavage
1,UACGUAGGUGGUUUCCCCCUGAUAGUGCUAAGGGGGCCUGGAAGUCUGGACUGGGCAAGGCUCAACACAGCGUGGCAAAGUGGCCGUGGCUAGACUGCCUCUCUGGAUUCCUCGUCACUCAGCAGGGCAUCUCUGAGAGAAAUGCC [U15C U46C G58A A59G U85C],0.22
2,UACGUAGGUGGUUUUCCCCUGAUAGUGCUAAGGGGGCCCGGAAGUUUGGGCUGGGCAGAGCUCAACACAGCGUGGCAAAGUGGCUGUGGCUAGACUGCCUCUCUGGAUUCCUCGUCACUCAGCAGGGCAUCUCUGAGAGAAAUGAC [U39C A50G C145A],1.03
3,UACGUAGGUGGUUUUCCCCCGAUAGUGCAAAGGGGGCCUGGAAGUUUGGACUGGACAGAGCUCAACACAGCGUGGCAAAGUGGCUGUGGCUAGACUGCCUCUCUGGAUUCCUCGUCACUCAGUAGGGCAUCUCUGAGAGAAAUGCC [U20C U29A G55A C123U],0.21
4,UACGUAGGUGGUUUUCCCCUGUUAGUGCUAAGGGGGCCGGGAAGUUUGGACUGGGCAGAGCUCAACACAGCGUGGCAAAGUGGCUGUGGCUAGACUGCCUCUCUGGAUUCCUCGUCACUCAGCGGGGCAUCUCUGAGAGAAAUGCC [A22U U39G A124G],0.91
5,UACGUAGGUGGUUUUCCCCUGAUAGUGCUAAGGGGGCCUGGAAGUUUGGACUGGGCAGAGCUCAACACAGUGUGGCAAAGUGGCUGAGGCUAGACUGCCCCCCUGGAUUCCUCGUCACUCAGUAGGGCGUCUCUGAGAGAAAUGCC [C71U U87A U100C U102C C123U A129G],0
6,UACGUAGGUGGUUUUCCCCCGAUAAUGCUAAGGGGGCCUGGAAGUUUGGACUGGGCAGAGCUCAACACAGCGUGGCAAAGUGGCUGUGGCUAGACUGCCUCUCUGCAUUCCUCGUCACCCAGCAGGGCAUCUCUGAGAGAAACGCC [U20C G25A G106C U119C U143C],1.27
7,UACGUAGGUGGUUUUCCCCCGAUAGUGCUAGGGGGGCCUGGAAGUUUGGAAUGGGCAGAGCUUAACACAGCGUGGCAAAGUGGCUGUGGCUAGACUGCCUCUCUGGAUUCCUCGUCACUCAGCAGGGCAUCACUGAGAGAAAUGCC [U20C A31G C51A C63U U132A],0.53
8,UACGUAGGUGGUUUUCCCCUGAUAGAGCUAGGGGGGCCUGGAAGUUUGGACUGGGCAGAGCUCAACGCAGCGUGGCAAAGUGGCUGUGGCUAGACUGCCUCUCUGGAUUCCUCGUCACUCAGCAGGGCAUCUCUGAGAGAAAUGCC [U26A A31G A67G],0
9,UACGUAGGUGGUUUUCCCCUGAUAGUGCUAAGGGGGCCUGGAAGUUUGGACUGGGCAGAGCUCAACACAGCGUGGCAAAGUGGCCGUGGCUAGACUGCCUCUCUGGAUUCCUCGUCACUCAGCUGGGCUUCUCUGAGAGAAAUGCC [U85C A124U A129U],0.27
10,UACGUAGGUGGUUCUCCCCCGAUAGUGCUAAGGGGGCCUGGAAGUUUGGACUGGGCAGAGCUCAACACAGCGUGGCAAAGUGGCUGUGGCUAGACUGCCUCUCUGGAUUCCUCGUCUCUCUGCAGGGCAUCUCUGAGAGAAAUGCC [U14C U20C A117U A121U],1.56
11,UACGUAGGUGGUUCUCCCCUGAUAGUGCUAAGGAGGCCUGGAAGUUUGGACUGGGCAGAGCUCAACACAGCGUGGCAAAGUGGCUGUGGCUAGACUGCCUCUCUGGAUUCCUCGUCACCCAGCAGGGCAUCUCUGAGAGAGAUGCC [U14C G34A U119C A141G],1.1
12,UACGUAGGUGGUAUUCCCCUGAUAGUGCUAAGGGGGCCUGGAAGUUUGGACUGGGCAGAGCUCAACACAGCGUGGCAAAGUGGCUGUGGCUAGACUGCCUCUCUGGAUCCCUCGUCACUCAGCAGGGCAUCUCUUAGAGAAAUGCC [U13A U109C G135U],0.79
13,UACGUAGGUGGCUUUCCCCUGAUAGUGCUAGGGGGGCCUGGAAGUUUAGACUGGGCAGAGCUCAACUCAGCGUGGCAAAGUGGCUGUGGCUAGACUGCCUCUCUGGAUUCCUCGACACUUAGCAGGGCAUCUCUGAGAGAAAUGCC [U12C A31G G48A A67U U115A C120U],0.25
14,UACGUAAGAGGUUUUCCCCUGAUAGUGCUAAAGGGGCCUGGAAGUUUGGACUAGGCAGAGCUCAACACAGCGUGGCAAAGUGGCUGUGGCUAGACUGCCUCUCUGGAUUCCUCGUCACUCAGCAGGGCAUCUCUGAGAGAAAUGCU [G7A U9A G32A G53A C146U],1.07
15,UACGUAGGUGGUCUUCCCCUGAUAGUGCUAAGGGGGCCUGGAAGCUUGGACUGGGCAGAGCCCAACACAGCGUGGCAAAGUGGCUGUGGCUAGACUGCCUCUCUGGAUUCCUCGUCCCUCAGCAGGGCAUCCCUGAGAGAAAUGCC [U13C U45C U62C A117C U132C],0
16,UACGUAGGUGGAUUUCCCCUGAUAGUGCUAAGGGGGCCUGGAAGUUUGGACUGGGCAGAACUCAACACAGCGCGGCAAAGUGGCUGUGGCUAGACUGCCUCUCUGGAUUCCCCGUCACUCAGCAGGGCAUCACUGGGAGAAAUGCC [U12A G60A U73C U112C U132A A136G],0.11
17,UACGUAGGUGGUUUUCCCCUGAUGGUGCUAAGGGGGCCUGGAAGUUUGGACAGGGCAGAGCUCAACACAGCGUGGCAAAGUGGCUGUGGCUAGACAGCCUCUCUGGAUUCCUCGUCACUCAGCAGGGCAUCUCUGAGAGAAAUGCC [A24G U52A U96A],0.1
18,UACGUAGGUGGUUUUCCCCUGAUAGUGCUAAGGGGGCCUGGAAGUUUGGACUGGGCAGAGCUCAACACAGCGAGGCAAAGUGGCUGUGGCUAGACUGCCUCUCUAGAUUCCCCGUCACUCAGCAGGGCAUCUCUGAGAGAAAUGCC [U73A G105A U112C],1.35
19,UACGUAGGUGGUCUUCCCCUGAUAGUGCUAAGGGGGCCUGGAAGUUUGGACUGGGCAGAGCUCAACACAGCGUGGCAAAGUGGCUGUGGCUAGACUGCCUCUCUGGAUUCCUCGUCACUCAGCAGGGCACCUCUGAGGGAAGUGCC [U13C U130C A138G A142G],2.63
20,UACGUAGGUGGUUUUCCCCUGAUAGUGCUAAGGGGGCCUGGAAGUUUGGACUGGGCAGAGCUCAACACAGCGUGGCAAAGUGGCCGUGGCUAGACUGCCUCCCUGGAUUCCUCGUCACUCAGCAGGGCAUCUCUGAGAGGAAUGCC [U85C U102C A140G],0
